The record followed here is PMC9974451.

Amino acid sequences for entries named in this document (tags omitted). Residues count along the entry.
UniProt Q92973, residues 9-898: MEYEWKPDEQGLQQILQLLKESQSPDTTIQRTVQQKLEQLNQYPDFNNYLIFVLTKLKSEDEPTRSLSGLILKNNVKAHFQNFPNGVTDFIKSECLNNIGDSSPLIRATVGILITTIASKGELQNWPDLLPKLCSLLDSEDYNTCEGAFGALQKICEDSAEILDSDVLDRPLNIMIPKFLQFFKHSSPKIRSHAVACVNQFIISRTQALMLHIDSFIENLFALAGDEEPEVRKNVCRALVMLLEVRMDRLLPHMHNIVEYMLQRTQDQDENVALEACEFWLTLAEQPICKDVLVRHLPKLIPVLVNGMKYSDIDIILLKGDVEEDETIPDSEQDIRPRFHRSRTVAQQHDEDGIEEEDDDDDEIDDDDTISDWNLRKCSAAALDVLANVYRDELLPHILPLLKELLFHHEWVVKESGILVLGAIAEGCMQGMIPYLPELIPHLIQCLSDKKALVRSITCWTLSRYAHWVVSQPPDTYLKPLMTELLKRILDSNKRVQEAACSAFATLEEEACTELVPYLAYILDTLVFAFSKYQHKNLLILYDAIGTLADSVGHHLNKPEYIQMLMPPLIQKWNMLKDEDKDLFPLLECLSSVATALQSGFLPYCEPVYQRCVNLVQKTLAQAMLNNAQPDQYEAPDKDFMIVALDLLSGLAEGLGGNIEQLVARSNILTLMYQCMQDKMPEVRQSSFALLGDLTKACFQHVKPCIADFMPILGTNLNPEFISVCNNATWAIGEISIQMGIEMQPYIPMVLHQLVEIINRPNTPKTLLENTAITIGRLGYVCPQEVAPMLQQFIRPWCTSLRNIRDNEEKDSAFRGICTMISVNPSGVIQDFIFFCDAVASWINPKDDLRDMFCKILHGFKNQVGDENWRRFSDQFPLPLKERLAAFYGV
UniProt Q14974: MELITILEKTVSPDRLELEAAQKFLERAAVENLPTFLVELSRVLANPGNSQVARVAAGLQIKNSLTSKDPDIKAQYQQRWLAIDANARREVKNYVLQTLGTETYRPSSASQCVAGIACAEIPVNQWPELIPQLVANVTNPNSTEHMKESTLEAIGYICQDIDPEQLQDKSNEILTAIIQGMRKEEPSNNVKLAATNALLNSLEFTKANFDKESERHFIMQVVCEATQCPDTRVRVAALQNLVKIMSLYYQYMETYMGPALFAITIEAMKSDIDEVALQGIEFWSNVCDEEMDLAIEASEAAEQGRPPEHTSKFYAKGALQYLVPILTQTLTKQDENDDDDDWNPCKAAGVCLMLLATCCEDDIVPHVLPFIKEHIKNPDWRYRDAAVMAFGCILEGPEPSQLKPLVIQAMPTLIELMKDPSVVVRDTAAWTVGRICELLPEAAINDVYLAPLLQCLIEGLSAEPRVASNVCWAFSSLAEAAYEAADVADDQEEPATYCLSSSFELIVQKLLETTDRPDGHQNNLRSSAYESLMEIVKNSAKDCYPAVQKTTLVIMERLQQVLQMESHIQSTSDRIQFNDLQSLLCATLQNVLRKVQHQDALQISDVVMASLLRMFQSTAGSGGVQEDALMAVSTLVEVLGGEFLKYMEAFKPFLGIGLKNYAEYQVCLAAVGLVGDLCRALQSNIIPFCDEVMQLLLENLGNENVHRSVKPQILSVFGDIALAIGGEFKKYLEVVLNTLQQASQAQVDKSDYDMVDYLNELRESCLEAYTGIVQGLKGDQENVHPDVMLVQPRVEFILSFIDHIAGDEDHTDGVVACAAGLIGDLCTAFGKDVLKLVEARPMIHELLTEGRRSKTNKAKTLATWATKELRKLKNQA

Assay [1] deals with His-TNPO1 (transportin 1) (UniProt Q92973). Kind of assay: condition: only with a 3-fold molar excess of RanQ69L(1-180)-GTP; SEC; as a6, with a 3-fold molar excess of RanQ69L(1-180)-GTP; both purified.
The target of assay [2] is T1, His-importin 13 (UniProt O94829).
T1 sequence: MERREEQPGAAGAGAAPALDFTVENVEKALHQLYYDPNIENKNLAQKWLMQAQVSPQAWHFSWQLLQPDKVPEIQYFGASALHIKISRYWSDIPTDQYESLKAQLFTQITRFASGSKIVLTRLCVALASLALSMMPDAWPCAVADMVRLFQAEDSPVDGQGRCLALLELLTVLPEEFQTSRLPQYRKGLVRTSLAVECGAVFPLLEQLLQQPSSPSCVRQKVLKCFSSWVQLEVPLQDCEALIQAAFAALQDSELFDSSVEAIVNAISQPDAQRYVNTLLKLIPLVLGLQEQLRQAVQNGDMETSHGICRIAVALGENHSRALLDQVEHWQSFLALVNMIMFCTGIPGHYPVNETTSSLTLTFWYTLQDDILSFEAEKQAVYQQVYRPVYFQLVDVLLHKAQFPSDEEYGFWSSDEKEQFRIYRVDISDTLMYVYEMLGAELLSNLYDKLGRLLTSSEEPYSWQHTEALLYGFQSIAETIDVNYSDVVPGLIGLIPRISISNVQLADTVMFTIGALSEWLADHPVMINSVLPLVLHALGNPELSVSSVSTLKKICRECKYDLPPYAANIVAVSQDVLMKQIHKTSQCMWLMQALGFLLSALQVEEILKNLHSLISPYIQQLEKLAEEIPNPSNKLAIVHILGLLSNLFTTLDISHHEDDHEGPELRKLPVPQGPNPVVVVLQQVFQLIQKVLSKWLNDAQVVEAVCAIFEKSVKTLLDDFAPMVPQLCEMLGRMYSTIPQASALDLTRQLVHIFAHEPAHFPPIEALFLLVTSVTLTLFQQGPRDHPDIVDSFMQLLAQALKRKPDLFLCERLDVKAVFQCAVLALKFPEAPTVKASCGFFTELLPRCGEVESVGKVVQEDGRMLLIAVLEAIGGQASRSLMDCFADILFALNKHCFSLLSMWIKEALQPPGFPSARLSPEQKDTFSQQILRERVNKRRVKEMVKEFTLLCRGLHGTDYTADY
The assay is described as above.

The target of assay [3] is His-TNPO1 (transportin 1) (UniProt Q92973). The assay can be described thus: SEC; His-NOSIP preincubated with one His-tagged NTR at 1:1 in TPB, 1-2 h, 4 °C; Superdex S200 increase 10/300 GL; fractions by SDS-PAGE, Coomassie; both purified.
For assay [4] the target is unchanged. Kind of assay: cross-linking; 20 μM His-NOSIP and 20 μM His-TNPO1, complex purified by size exclusion chromatography, BS3 in 300-fold molar excess, 30 min, RT; cross-linked peptides by mass spectrometry; both purified.
Assay [5] concerns the target His-S-importin β (full length) (UniProt Q14974). The assay can be described thus: condition: only with His-importin α (importin α:importin β:NOSIP 1:1:3); SEC; His-importin α : His-importin β : NOSIP at 1:1:3 in TPB; Superdex S200 increase 10/300 GL; fractions by SDS-PAGE, Coomassie; both purified.
Assay [6] has as its target T2, His-NOSIP-MBP (nitric oxide synthase interacting protein) (UniProt Q9Y314).
T2 sequence: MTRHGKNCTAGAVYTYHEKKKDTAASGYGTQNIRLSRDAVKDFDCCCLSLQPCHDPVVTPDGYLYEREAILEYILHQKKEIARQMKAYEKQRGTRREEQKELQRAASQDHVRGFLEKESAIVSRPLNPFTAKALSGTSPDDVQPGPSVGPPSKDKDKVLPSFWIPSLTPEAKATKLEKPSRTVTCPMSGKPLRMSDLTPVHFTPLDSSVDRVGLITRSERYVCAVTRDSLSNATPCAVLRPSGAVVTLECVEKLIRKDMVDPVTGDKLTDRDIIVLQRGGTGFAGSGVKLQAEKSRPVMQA
The assay can be described thus: pull-down; 100 pmol His-NOSIP-MBP (WT or K78A/K79A) or MBP immobilised on amylose beads, 100 pmol purified His-tagged NTR, with or without 300 pmol RanQ69L(1-180)-GTP, 3 h, 4 °C, TPB; SDS-PAGE, Coomassie; both purified.

The target of assay [7] is T3, His-NOSIP-MBP K78AK79A (UniProt Q9Y314).
T3 sequence: T2 sequence with K78A, K79A
Described as above.

Where a chain is given by its changes, count along the chain named. Results are given in words; binding and its absence hold for the method and conditions named. Some entries that bind do so weakly or less than the wild type. Where a sequence is shown, tags or fusion partners need not be part of it.

B1: His-NOSIP (protein, UniProt Q9Y314 1-301)
chain: T2 sequence
B1: the binding entry in assay [1] was “no binding”; in assay [2], “no binding”; in assay [3], “binds”; in assay [4], “binds”; in assay [5], “no binding”.

B2: His-importin 5 (protein, UniProt O00410 1-1097)
chain: MAAAAAEQQQFYLLLGNLLSPDNVVRKQAEETYENIPGQSKITFLLQAIRNTTAAEEARQMAAVLLRRLLSSAFDEVYPALPSDVQTAIKSELLMIIQMETQSSMRKKVCDIAAELARNLIDEDGNNQWPEGLKFLFDSVSSQNVGLREAALHIFWNFPGIFGNQQQHYLDVIKRMLVQCMQDQEHPSIRTLSARATAAFILANEHNVALFKHFADLLPGFLQAVNDSCYQNDDSVLKSLVEIADTVPKYLRPHLEATLQLSLKLCGDTSLNNMQRQLALEVIVTLSETAAAMLRKHTNIVAQTIPQMLAMMVDLEEDEDWANADELEDDDFDSNAVAGESALDRMACGLGGKLVLPMIKEHIMQMLQNPDWKYRHAGLMALSAIGEGCHQQMEGILNEIVNFVLLFLQDPHPRVRYAACNAVGQMATDFAPGFQKKFHEKVIAALLQTMEDQGNQRVQAHAAAALINFTEDCPKSLLIPYLDNLVKHLHSIMVLKLQELIQKGTKLVLEQVVTSIASVADTAEEKFVPYYDLFMPSLKHIVENAVQKELRLLRGKTIECISLIGLAVGKEKFMQDASDVMQLLLKTQTDFNDMEDDDPQISYMISAWARMCKILGKEFQQYLPVVMGPLMKTASIKPEVALLDTQDMENMSDDDGWEFVNLGDQQSFGIKTAGLEEKSTACQMLVCYAKELKEGFVEYTEQVVKLMVPLLKFYFHDGVRVAAAESMPLLLECARVRGPEYLTQMWHFMCDALIKAIGTEPDSDVLSEIMHSFAKCIEVMGDGCLNNEHFEELGGILKAKLEEHFKNQELRQVKRQDEDYDEQVEESLQDEDDNDVYILTKVSDILHSIFSSYKEKVLPWFEQLLPLIVNLICPHRPWPDRQWGLCIFDDVIEHCSPASFKYAEYFLRPMLQYVCDNSPEVRQAAAYGLGVMAQYGGDNYRPFCTEALPLLVRVIQSADSKTKENVNATENCISAVGKIMKFKPDCVNVEEVLPHWLSWLPLHEDKEEAVQTFNYLCDLIESNHPIVLGPNNTNLPKIFSIIAEGEMHEAIKHEDPCAKRLANVVRQVQTSGGLWTECIAQLSPEQQAAIQELLNSA
In the case of B2, the binding result in assay [6] and in assay [7] was “binds” in each case.
